Each structure is given as a SMILES string. Out of some 52,000 compounds screened, about 1,700 (3.3%) were called active. Cut-off read from the data, not from the text of the source: active = survival mostly below about 52% (no sharp cut-off); inactive = mostly above about 56%. The list shows a part of the results.

The assay relates to Wild type. The assay can be described thus: S. aureus survival, RN4220 and DeltatarO strains – OD600, teichoic acid synthesis inhibitors, primary screen (AID 463173). As to conditions: S. aureus RN4220 wild type/DeltatarO growth, OD600, 18 h, hits give low values, screened at 18.75 µg/mL (by protocol).
With `CC(C)(C)c1ccc(S(=O)(=O)NCc2nc3cccnc3n2Cc2ccccc2Cl)cc1`, the survival is active: 14%. Take `O=C(c1ccc(S(=O)(=O)N2CCOCC2)cc1)n1nnc2ccccc21`: the survival is inactive: 110%. The value for `Cc1ccc(CNS(=O)(=O)c2c(C)nc3scc(C)n3c2=O)cc1` was inactive: 130%; that for `CC(C)c1ccccc1NC(=O)CN1C(=O)c2cccc3cccc1c23` was inactive: 74%. With `O=C(CN1CCCCC1)N1CCc2ccccc21`, the survival is inactive: 110%. For `Cc1nc(N2CCCC2)c2c(C(=O)N3CCN(c4cccc(C)c4C)CC3)c(C)oc2n1` the value was inactive: 75%.

Consider `CCC(=O)Nc1ccc2nc(SCc3ccc(C)cc3)sc2c1`, for which the survival was inactive: 92%. For `O=C(CSc1nc(-c2ccccc2)[nH]c1-c1ccccc1)Nc1ccc2c(c1)OCCO2` the value was inactive: 70%; for `Cc1ccc(Nc2cc(C)c(C#N)c3nc4ccccc4n23)cc1Cl`, inactive: 87%. Consider `NC(=O)c1ccc(N2CCCCC2)c(N2C(=O)C3CC=CCC3C2=O)c1` (configuration not stated), for which the survival is inactive: 104%.

On to `CCCSCCCNC(=O)c1ccc2c(c1)nc1n2CCCCC1`, for which the survival is inactive: 69%. The value for `CN(CC(=O)Nc1ccccc1Cl)S(=O)(=O)c1ccc(C(=O)N2CCOCC2)s1` was inactive: 73%; that for `COc1ccc(S(=O)(=O)N2CCN(Cc3ccc4c(c3)OCO4)CC2)cc1OC` was inactive: 78%. The value for `CC(C)c1cc(-c2nc(-c3ccccc3)no2)n[nH]1` was inactive: 71%; that for `COCCNC(=O)c1nn(-c2ccc(Cl)cc2)nc1CO` was inactive: 89%; that for `COc1ccc(CNC(=O)c2cc3c(=O)n(C)c4ccccc4c3n2C)cc1` was inactive: 90%. For `Cn1cnc(S(=O)(=O)N2CCC(C(=O)NCc3ccc(Cl)cc3)CC2)c1` the value was inactive: 95%. Turning to `O=C(CSc1ccccc1)NCc1ccc2c(c1)CCN2C(=O)c1ccc(F)cc1`, the survival was inactive: 79%. The value for `O=C(Cc1ccccc1)N(Cc1cccnc1)c1nc2ccc(F)cc2s1` was inactive: 91%; that for `CCc1ccc2oc(-c3ccc(NC(=O)c4cc(OC)c(OC)c(OC)c4)cc3)nc2c1` was inactive: 71%. Consider `CCOC(=O)c1ccc(N2C(=O)c3[nH]nc(-c4ccc(OCC)cc4)c3C2c2ccc(OC)cc2OC)cc1` (configuration not stated), for which the survival was inactive: 118%.

Take `CCOc1cc(C2CC(=O)Nc3nc(SCc4ccccc4)[nH]c(=O)c32)ccc1O` (configuration not stated): the survival was inactive: 106%. For `CCc1ccc(CNC(=O)CCCN2C(=O)c3cccnc3Oc3ccc(Cl)cc32)cc1` the value was inactive: 70%. Take `Cc1ccccc1-c1nnc(C2CCN(S(=O)(=O)c3ccc(Cl)cc3)CC2)o1`: the survival is inactive: 88%. For `O=C(COc1ccccc1)Nc1nnc(S(=O)(=O)N2CCCCCC2)s1` the value was inactive: 84%.

As for `Cc1ccc2c(c1)N(C(=O)N1CCC(C(=O)NCc3cccs3)CC1)CC(C)O2` (configuration not stated), the survival is inactive: 85%. As for `COc1ccc(CNC(=O)c2cc3c(=O)[nH]c4ccccc4c3n2C)c(OC)c1`, the survival is inactive: 76%. The value for `Cc1nn2c(=O)cc(COC(=O)C(c3ccccc3)c3ccccc3)nc2s1` was inactive: 72%. Consider `COc1ccc(CCNC(=O)CCCn2c(=O)c3ccccc3n(CC(=O)Nc3ccc(C)cc3Cl)c2=O)cc1OC`, for which the survival was inactive: 134%. In the case of `CC(NC(=O)CN1C(=O)COc2ccc(Cl)cc21)c1ccccc1` (configuration not stated), the survival was inactive: 127%.

Consider `COc1ccc(Cl)cc1NC(=O)NCc1noc2ccccc12`, for which the survival was inactive: 77%. Consider `Cc1cccc(N(CC(=O)NCCSc2ccc(Cl)cc2)S(C)(=O)=O)c1C`, for which the survival is inactive: 60%.

Consider `Cc1ccc(-c2c(C(=O)N(C)Cc3ccccc3)oc(=O)c3ccccc23)cc1`, for which the survival is active: 11%. For `COc1ccc(CSC(=N)N)cc1Cl` the value was inactive: 104%; for `C/C(Cc1ccccc1)=N\NC(=O)c1cc(C(C)(C)C)[nH]n1`, inactive: 106%; for `Cc1ccc(NC(=O)C2CCN(C(=O)c3cnn(-c4ccccc4)c3-n3cccc3)CC2)cc1C`, inactive: 84%. The value for `CC(C)c1ccc(NC(=O)CCNS(=O)(=O)c2ccc3c(c2)oc(=O)n3C)cc1` was inactive: 84%.

With `C=C(C)Cn1c(SCC(=O)Nc2cccc(C)c2)nc2sc3c(c2c1=O)CCCC3`, the survival is inactive: 120%. For `COC(=O)c1nnn(-c2ccc(Cl)cc2)c1C(=O)OC` the value was inactive: 130%; for `O=C(CCS(=O)(=O)c1nc(-c2ccc3c(c2)OCO3)cc(C(F)(F)F)n1)Nc1ccc(F)cc1F`, inactive: 77%; for `CCS(=O)(=O)c1ncc(Cl)c(C(=O)Nc2c(C(=O)c3ccc(C)cc3)oc3ccccc23)n1`, inactive: 77%. For `Cc1ccc(-n2ncc(C(=O)N3CCN(C(=O)c4ccco4)CC3)c2C2CCN(C(=O)OC(C)(C)C)CC2)cc1` the value was inactive: 66%; for `O=C(CN1CCCN(Cc2cccc(F)c2)S1(=O)=O)Nc1ccc2c(c1)OCCO2`, inactive: 77%; for `O=C(NCC(c1cccnc1)N1CCc2ccccc2C1)C(=O)Nc1ccc(F)cc1F` (configuration not stated), inactive: 104%. Consider `Cc1cccc(-c2nc(C)c(CCNC(=O)c3cccs3)s2)c1`, for which the survival was inactive: 66%. As for `COc1cccc(-c2cn3c(n2)sc2cc(C(=O)NCCC4=CCCCC4)ccc23)c1`, the survival is inactive: 59%. In the case of `CCc1ccc2[nH]c(=O)c(CNCCO)cc2c1`, the survival was inactive: 105%.

With `O=C(CSc1oc(-c2ccc(F)cc2)nc1S(=O)(=O)c1ccc(Cl)cc1)c1ccccc1`, the survival was inactive: 63%. Consider `Cc1cccc(CCNC(=O)c2nn(C)c3c2CSc2ccccc2-3)c1`, for which the survival was inactive: 87%. Regarding `O=C(c1ccc2c(c1)N(Cc1cccc(Cl)c1)C(=O)c1ccccc1S2(=O)=O)N1CCCCCC1`, the survival was inactive: 73%. With `CCOc1ccc(CN(C(=O)c2cc(=O)c3cc(Cl)ccc3o2)C2CCS(=O)(=O)C2)cc1` (configuration not stated), the survival was inactive: 112%. Take `CCCCOC(=O)c1c(C)oc2ccc(NS(=O)(=O)c3ccc(F)cc3C)cc12`: the survival is active: 1%.

As to `CCc1ccc(CNc2ncnc3onc(-c4ccc(Cl)cc4)c23)cc1`, the survival is inactive: 48%. For `Clc1ncnc2sc3c(c12)CCCC3` the value was inactive: 108%; for `COc1ccc(N2CCN(C(CNC(=O)c3cccc(OC)c3)c3cccnc3)CC2)cc1` (configuration not stated), inactive: 82%; for `COc1ccc(-c2cc(C(F)(F)F)n3nc(C(=O)Nc4sc5c(c4C(=O)OC(C)C)CCCC5)cc3n2)cc1OC`, inactive: 140%. `CCN(CC)C(=O)C1CCN(c2cc(C)nc3c(-c4ccc(OC)c(OC)c4)c(C)nn23)CC1`: the survival is inactive: 96%.

The values are drawn from PubChem BioAssay AID463173 (ICCB-Longwood Screening Facility, Harvard Medical School, 2010).
